± gives the standard error. Variants at the background level are over-represented here.
B1: glmS ribozyme (parent)
chain: AUAAAAGCGCCAGAACUACAGAAAUGUAGUUGACGAGGAGGAGGUUUAUCGAAUUUUCGGCGGAUGCCUCCAAA

What was measured:
Conditions in all cases: with glucosamine-6-phosphate
[1] = variants of: B1; test: self-cleavage kobs at 40 uM GlcN6P; higher = faster cleavage; RNA array
Summary of the method: (§1)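 Barcoded ribozyme variants, transcribed in situ by E. coli RNA polymerase on sequenced MiSeq chips, were followed via a hybridised Cy3 probe at 37 °C. Glucosamine-6-phosphate ranged from 40 μM to 10 mM in HEPES/KCl/Mg(OAc)2 buffer. kobs came from decay fits to per-tile medians, and kcat and KM from weighted Michaelis–Menten fits.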

[2] = variants of: B1; test: self-cleavage kobs at 640 uM GlcN6P; higher = faster cleavage; RNA array
Summary of the method: as §1

[3] = variants of: B1; test: self-cleavage kobs at 10000 uM GlcN6P; higher = faster cleavage; RNA array
Summary of the method: as §1

[4] = variants of: B1; test: self-cleavage kobs at 160 uM GlcN6P; higher = faster cleavage; RNA array
Summary of the method: as §1

[5] = variants of: B1; test: self-cleavage kobs at 2500 uM GlcN6P; higher = faster cleavage; RNA array
Summary of the method: as §1

Variant	self-cleavage kobs at 40 uM GlcN6P [1] [s⁻¹]	self-cleavage kobs at 640 uM GlcN6P [2] [s⁻¹]	self-cleavage kobs at 10000 uM GlcN6P [3] [s⁻¹]	self-cleavage kobs at 160 uM GlcN6P [4] [s⁻¹]	self-cleavage kobs at 2500 uM GlcN6P [5] [s⁻¹]
C34A C50A	< 1e-05	< 1e-05	< 1e-05	–	–
C34A C61G	< 1e-05	< 1e-05	< 1e-05	< 1e-05	< 1e-05
C34A C61U C67U	< 1e-05	–	–	–	–
C34A G35C U55A	< 1e-05	–	–	–	< 1e-05
C34A G37U G44U	< 1e-05	–	–	–	–
C34A G38U U69A	< 1e-05	–	–	–	–
C34A G40A	< 1e-05	< 1e-05	< 1e-05	–	< 1e-05
C34A G40U G66A	< 1e-05	–	< 1e-05	< 1e-05	–
C34A G41U	< 1e-05	< 1e-05	< 1e-05	< 1e-05	< 1e-05
C34A G43A	< 1e-05	–	–	–	< 1e-05
C34A G43C	< 1e-05	< 1e-05	< 1e-05	< 1e-05	–
C34A G51A	< 1e-05	–	–	< 1e-05	< 1e-05
C34A G60A	< 1e-05	< 1e-05	< 1e-05	< 1e-05	< 1e-05
C34A G60C	< 1e-05	< 1e-05	< 1e-05	< 1e-05	< 1e-05
C34A G60U	< 1e-05	< 1e-05	< 1e-05	–	< 1e-05
C34A U45A	< 1e-05	–	–	–	–
C34A U47A A52C A64U	< 1e-05	–	–	–	–
C34A U47G	< 1e-05	< 1e-05	< 1e-05	< 1e-05	< 1e-05
C34A U55C	< 1e-05	< 1e-05	–	< 1e-05	< 1e-05
C34A U56C	< 1e-05	–	–	–	–
C34A U57C C68G	< 1e-05	< 1e-05	–	–	< 1e-05

Variant	self-cleavage kobs at 40 uM GlcN6P [1] [s⁻¹]	self-cleavage kobs at 640 uM GlcN6P [2] [s⁻¹]	self-cleavage kobs at 10000 uM GlcN6P [3] [s⁻¹]	self-cleavage kobs at 160 uM GlcN6P [4] [s⁻¹]	self-cleavage kobs at 2500 uM GlcN6P [5] [s⁻¹]
C34A U65C	< 1e-05	< 1e-05	< 1e-05	< 1e-05	< 1e-05
C34G	< 1e-05	< 1e-05	–	< 1e-05	–
C34G A36U	< 1e-05	< 1e-05	< 1e-05	–	–
C34G A42C	< 1e-05	< 1e-05	< 1e-05	–	< 1e-05
C34G A42C C61A	< 1e-05	< 1e-05	–	–	< 1e-05
C34G A48C	< 1e-05	< 1e-05	< 1e-05	< 1e-05	< 1e-05
C34G A53U	< 1e-05	< 1e-05	< 1e-05	–	< 1e-05
C34G A64C	< 1e-05	< 1e-05	< 1e-05	–	< 1e-05
C34G C50A	< 1e-05	< 1e-05	–	–	–
C34G C58A C67A	< 1e-05	–	–	–	–
C34G G41U	< 1e-05	< 1e-05	< 1e-05	< 1e-05	< 1e-05
C34G G51A	< 1e-05	< 1e-05	< 1e-05	< 1e-05	< 1e-05
C34G G51A G62A	< 1e-05	–	–	–	–
C34G G51U U55A	< 1e-05	–	< 1e-05	–	–
C34G G60A C70U	< 1e-05	–	< 1e-05	< 1e-05	–
C34G G62U	< 1e-05	–	< 1e-05	–	< 1e-05
C34G G66C	< 1e-05	–	< 1e-05	–	–
C34G U46G	< 1e-05	< 1e-05	< 1e-05	< 1e-05	–
C34G U49A	< 1e-05	–	< 1e-05	–	–
C34G U49C C68U C70U	< 1e-05	–	–	–	–
C34G U55A	< 1e-05	< 1e-05	< 1e-05	< 1e-05	< 1e-05

Variant	self-cleavage kobs at 40 uM GlcN6P [1] [s⁻¹]	self-cleavage kobs at 640 uM GlcN6P [2] [s⁻¹]	self-cleavage kobs at 10000 uM GlcN6P [3] [s⁻¹]	self-cleavage kobs at 160 uM GlcN6P [4] [s⁻¹]	self-cleavage kobs at 2500 uM GlcN6P [5] [s⁻¹]
C34G U55G	< 1e-05	–	< 1e-05	–	–
C34U	< 1e-05	< 1e-05	< 1e-05	< 1e-05	< 1e-05
C34U A39C G63A G66C	< 1e-05	< 1e-05	< 1e-05	< 1e-05	< 1e-05
C34U A42C	< 1e-05	< 1e-05	–	–	–
C34U A48C	< 1e-05	–	< 1e-05	–	< 1e-05
C34U A48G	< 1e-05	< 1e-05	< 1e-05	< 1e-05	< 1e-05
C34U A48U	< 1e-05	< 1e-05	< 1e-05	< 1e-05	< 1e-05
C34U A64G	< 1e-05	< 1e-05	< 1e-05	–	–
C34U C58G U65G C70A	0.000236 ± 8.2e-05	0.000187 ± 7.4e-05	0.000376 ± 0.00015	–	–
C34U C61A C67U	0.00014 ± 3.8e-05	0.000388 ± 0.00011	0.000236 ± 6.1e-05	–	5.38e-05 ± 2.6e-05
C34U C71A	< 1e-05	< 1e-05	–	–	< 1e-05
C34U G38U C68A	< 1e-05	–	–	< 1e-05	< 1e-05
C34U G40U U57C	< 1e-05	–	–	–	–
C34U G41A A48G G62C	< 1e-05	–	< 1e-05	–	–
C34U G41U A48U	< 1e-05	< 1e-05	< 1e-05	< 1e-05	–
C34U G41U U54A	< 1e-05	< 1e-05	–	–	< 1e-05
C34U G44A	< 1e-05	< 1e-05	< 1e-05	< 1e-05	< 1e-05
C34U G44C	< 1e-05	–	< 1e-05	–	< 1e-05
C34U G44C G63A	< 1e-05	–	–	< 1e-05	–
C34U G44U	< 1e-05	–	< 1e-05	< 1e-05	< 1e-05
C34U G59A	< 1e-05	–	–	–	–

Variant	self-cleavage kobs at 40 uM GlcN6P [1] [s⁻¹]	self-cleavage kobs at 640 uM GlcN6P [2] [s⁻¹]	self-cleavage kobs at 10000 uM GlcN6P [3] [s⁻¹]	self-cleavage kobs at 160 uM GlcN6P [4] [s⁻¹]	self-cleavage kobs at 2500 uM GlcN6P [5] [s⁻¹]
C34U G62A	< 1e-05	< 1e-05	–	< 1e-05	< 1e-05
C34U G62U	< 1e-05	–	–	< 1e-05	< 1e-05
C34U U45A	< 1e-05	–	–	–	–
C34U U45A A53U	< 1e-05	–	–	–	–
C34U U46G	< 1e-05	< 1e-05	< 1e-05	–	–
C34U U55A G60U	< 1e-05	< 1e-05	–	–	–
C34U U65A	< 1e-05	< 1e-05	< 1e-05	< 1e-05	–
C34U U65C	< 1e-05	< 1e-05	< 1e-05	< 1e-05	< 1e-05
G35A A36C U46A	< 1e-05	–	–	–	–
G35A A39G	< 1e-05	–	< 1e-05	–	< 1e-05
G35A A39U G41U	< 1e-05	< 1e-05	–	–	–
G35A A48G	< 1e-05	< 1e-05	< 1e-05	< 1e-05	< 1e-05
G35A A52C	< 1e-05	< 1e-05	< 1e-05	< 1e-05	< 1e-05
G35A A52G G62U	< 1e-05	–	–	–	–
G35A A52U	< 1e-05	< 1e-05	< 1e-05	< 1e-05	< 1e-05
G35A A64G C70G	< 1e-05	–	–	–	–
G35A G37C	< 1e-05	< 1e-05	< 1e-05	< 1e-05	< 1e-05
G35A G40A	< 1e-05	–	–	< 1e-05	< 1e-05
G35A G40U	< 1e-05	< 1e-05	< 1e-05	< 1e-05	< 1e-05
G35A G40U A53G	< 1e-05	< 1e-05	< 1e-05	–	< 1e-05
